{"source": "the supplement of paper PMC8728848", "assay_in_all_cases": "glycan array binding signal (z-score within array); higher = stronger binding", "conditions_in_all_cases": "glycan notation: IUPAC condensed, linker removed", "key": {"[1]": {"target": "Gal(b1-3)[Fuc(a1-4)]GlcNAc(b1-6)GalNAc", "outline": "(§1)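 The binding signal is a Z-score computed within each array and averaged over linkers. Arrays of the same protein sequence at different concentrations or buffers were also averaged together. Data originate from 3228 arrays in the Consortium for Functional Glycomics database, kept only where the protein sequence was available.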"}, "[2]": {"target": "Gal(b1-3)[GlcNAc(b1-6)]GalNAc", "outline": "as §1"}, "[3]": {"target": "Gal(b1-3)[Neu5Ac(a2-6)]GalNAc", "outline": "as §1"}, "[4]": {"target": "Gal(b1-3)[Neu5Ac(a2-6)]GlcNAc(b1-4)Gal(b1-4)Glc", "outline": "as §1"}, "[5]": {"target": "Gal(b1-3)[Neu5Ac(b2-6)]GalNAc", "outline": "as §1"}, "Gal(b1-4)Gal": {"target": "Gal(b1-4)Gal", "outline": "as §1"}, "[6]": {"target": "Gal(b1-4)GalNAc(a1-3)[Fuc(a1-2)]Gal(b1-4)GlcNAc", "outline": "as §1"}, "[7]": {"target": "Gal(b1-4)GalNAc(b1-3)[Fuc(a1-2)]Gal(b1-4)GlcNAc", "outline": "as §1"}, "Gal(b1-4)Glc": {"target": "Gal(b1-4)Glc", "outline": "as §1"}, "Gal(b1-4)Glc6S": {"target": "Gal(b1-4)Glc6S", "outline": "as §1"}, "Gal(b1-4)GlcNAc": {"target": "Gal(b1-4)GlcNAc", "outline": "as §1"}, "[8]": {"target": "Gal(b1-4)GlcNAc(a1-6)Gal(b1-4)GlcNAc", "outline": "as §1"}, "Gal(b1-4)GlcNAc(b1-2)Man": {"target": "Gal(b1-4)GlcNAc(b1-2)Man", "outline": "as §1"}, "[9]": {"target": "Gal(b1-4)GlcNAc(b1-2)Man(a1-3)Man(b1-4)GlcNAc(b1-4)GlcNAc", "outline": "as §1"}, "[10]": {"target": "Gal(b1-4)GlcNAc(b1-2)Man(a1-3)[Gal(b1-4)GlcNAc(b1-2)Man(a1-6)]Man(b1-4)GlcNAc(b1-4)GlcNAc", "outline": "as §1"}, "[11]": {"target": "Gal(b1-4)GlcNAc(b1-2)Man(a1-3)[Gal(b1-4)GlcNAc(b1-2)Man(a1-6)]Man(b1-4)GlcNAc(b1-4)[Fuc(a1-6)]GlcNAc", "outline": "as §1"}, "[12]": {"target": "Gal(b1-4)GlcNAc(b1-2)Man(a1-3)[Gal(b1-4)GlcNAc(b1-2)Man(a1-6)][Gal(b1-4)GlcNAc(b1-4)]Man(b1-4)GlcNAc(b1-4)[Fuc(a1-6)]GlcNAc", "outline": "as §1"}, "[13]": {"target": "Gal(b1-4)GlcNAc(b1-2)Man(a1-3)[Gal(b1-4)GlcNAc(b1-2)Man(a1-6)][GlcNAc(b1-4)]Man(b1-4)GlcNAc(b1-4)[Fuc(a1-6)]GlcNAc", "outline": "as §1"}, "[14]": {"target": "Gal(b1-4)GlcNAc(b1-2)Man(a1-3)[GlcNAc(b1-2)Man(a1-6)]Man(b1-4)GlcNAc(b1-4)GlcNAc", "outline": "as §1"}, "[15]": {"target": "Gal(b1-4)GlcNAc(b1-2)Man(a1-3)[GlcNAc(b1-4)][Gal(b1-4)GlcNAc(b1-2)Man(a1-6)]Man(b1-4)GlcNAc(b1-4)GlcNAc", "outline": "as §1"}, "[16]": {"target": "Gal(b1-4)GlcNAc(b1-2)Man(a1-3)[Man(a1-6)]Man(b1-4)GlcNAc(b1-4)GlcNAc", "outline": "as §1"}, "[17]": {"target": "Gal(b1-4)GlcNAc(b1-2)Man(a1-6)Man(b1-4)GlcNAc(b1-4)GlcNAc", "outline": "as §1"}, "[18]": {"target": "Gal(b1-4)GlcNAc(b1-2)Man(a1-6)[GlcNAc(b1-2)Man(a1-3)]Man(b1-4)GlcNAc(b1-4)GlcNAc", "outline": "as §1"}, "[19]": {"target": "Gal(b1-4)GlcNAc(b1-2)Man(a1-6)[Man(a1-3)]Man(b1-4)GlcNAc(b1-4)GlcNAc", "outline": "as §1"}, "[20]": {"target": "Gal(b1-4)GlcNAc(b1-2)[Gal(b1-4)GlcNAc(b1-4)]Man(a1-3)[Gal(b1-4)GlcNAc(b1-2)Man(a1-6)]Man(b1-4)GlcNAc(b1-4)GlcNAc", "outline": "as §1"}, "[21]": {"target": "Gal(b1-4)GlcNAc(b1-2)[Gal(b1-4)GlcNAc(b1-4)]Man(a1-3)[Gal(b1-4)GlcNAc(b1-2)[Gal(b1-4)GlcNAc(b1-6)]Man(a1-6)]Man(b1-4)GlcNAc(b1-4)GlcNAc", "outline": "as §1"}, "[22]": {"target": "Gal(b1-4)GlcNAc(b1-2)[Gal(b1-4)GlcNAc(b1-4)]Man(a1-3)[GlcNAc(b1-4)][Gal(b1-4)GlcNAc(b1-2)Man(a1-6)]Man(b1-4)GlcNAc(b1-4)GlcNAc", "outline": "as §1"}, "[23]": {"target": "Gal(b1-4)GlcNAc(b1-2)[Gal(b1-4)GlcNAc(b1-4)]Man(a1-3)[GlcNAc(b1-4)][Gal(b1-4)GlcNAc(b1-2)[Gal(b1-4)GlcNAc(b1-6)]Man(a1-6)]Man(b1-4)GlcNAc(b1-4)GlcNAc", "outline": "as §1"}, "[24]": {"target": "Gal(b1-4)GlcNAc(b1-2)[Gal(b1-4)GlcNAc(b1-6)]Man(a1-6)[Gal(b1-4)GlcNAc(b1-2)Man(a1-3)]Man(b1-4)GlcNAc(b1-4)GlcNAc", "outline": "as §1"}, "[25]": {"target": "Gal(b1-4)GlcNAc(b1-2)[Gal(b1-4)GlcNAc(b1-6)]Man(a1-6)[Gal(b1-4)GlcNAc(b1-2)Man(a1-3)]Man(b1-4)GlcNAc(b1-4)[Fuc(a1-6)]GlcNAc", "outline": "as §1"}, "[26]": {"target": "Gal(b1-4)GlcNAc(b1-2)[Gal(b1-4)GlcNAc(b1-6)]Man(a1-6)[GlcNAc(b1-4)][Gal(b1-4)GlcNAc(b1-2)Man(a1-3)]Man(b1-4)GlcNAc(b1-4)GlcNAc", "outline": "as §1"}, "[27]": {"target": "Gal(b1-4)GlcNAc(b1-2)[Gal(b1-4)GlcNAc(b1-6)]Man(a1-6)[GlcNAc(b1-4)][Gal(b1-4)GlcNAc(b1-2)[Gal(b1-4)GlcNAc(b1-4)]Man(a1-3)]Man(b1-4)GlcNAc(b1-4)[Fuc(a1-6)]GlcNAc", "outline": "as §1"}, "[28]": {"target": "Gal(b1-4)GlcNAc(b1-3)Gal(b1-3)GalNAc", "outline": "as §1"}, "[29]": {"target": "Gal(b1-4)GlcNAc(b1-3)Gal(b1-3)GlcNAc", "outline": "as §1"}, "[30]": {"target": "Gal(b1-4)GlcNAc(b1-3)Gal(b1-4)Glc", "outline": "as §1"}, "[31]": {"target": "Gal(b1-4)GlcNAc(b1-3)Gal(b1-4)GlcNAc", "outline": "as §1"}, "[32]": {"target": "Gal(b1-4)GlcNAc(b1-3)Gal(b1-4)GlcNAc(b1-2)Man(a1-3)[Gal(b1-4)GlcNAc(b1-3)Gal(b1-4)GlcNAc(b1-2)Man(a1-6)]Man(b1-4)GlcNAc(b1-4)GlcNAc", "outline": "as §1"}, "[33]": {"target": "Gal(b1-4)GlcNAc(b1-3)Gal(b1-4)GlcNAc(b1-2)Man(a1-3)[Gal(b1-4)GlcNAc(b1-3)Gal(b1-4)GlcNAc(b1-2)Man(a1-6)]Man(b1-4)GlcNAc(b1-4)[Fuc(a1-6)]GlcNAc", "outline": "as §1"}}, "note": "This is one part of the list.", "data": [{"binder": "PX9937J-pdi-523-26-523 (Parabacteroides distasonis) (protein) EPVSSISDANYWKSPDLFKAFNIGLHGLLRSQSSYNIFVLGEPRSDIYGDQPFGGEATQGVERFSYNTINAEFTGISNFANFYTTLNQINLMIRRTNETDLLGEAEKNYYLGQAYGLRAYIYFHLLRSWGDVIITTEPTLGSELDISHLDKAASPASEVMDLIKKDIDASEKAFGGDYSYKQGKCYWSKPATLMLKGEVYLWSGRQMGGGTGDYTVAKTALQDLQQNGNLKLQEKFTDVFSFNNKENSEMIFALHSGKEDDFMMWRDYNWRNNMVPQREYMAGYCDETGTPFLEIPGYNLQGLMRYQVKKDHYLKSFREGDTRLKGTLKAVYKKHEDGTLEYIAPIQYKFQGTTLEGSNERSWYDDYPIYRYADALLLLAEAKALLGEDPSTEINAVRERAYGSEYFNAHKNEVAYPNDKGSFYNDNPFEAGDENVMEAILKERLREFFFEGKRWYDLRRFGKDYVLKYTTAQESRLLWPINEGALTNNPALKQTPGY", "values": [{"measurement": "glycan array binding signal (z-score)", "setting": "[1]", "value": -0.41}, {"measurement": "glycan array binding signal (z-score)", "setting": "[2]", "value": -0.715}, {"measurement": "glycan array binding signal (z-score)", "setting": "[3]", "value": -0.22}, {"measurement": "glycan array binding signal (z-score)", "setting": "[4]", "value": -0.565}, {"measurement": "glycan array binding signal (z-score)", "setting": "[5]", "value": -0.659}, {"measurement": "glycan array binding signal (z-score)", "setting": "Gal(b1-4)Gal", "value": -0.185}, {"measurement": "glycan array binding signal (z-score)", "setting": "[6]", "value": -0.573}, {"measurement": "glycan array binding signal (z-score)", "setting": "[7]", "value": -0.766}, {"measurement": "glycan array binding signal (z-score)", "setting": "Gal(b1-4)Glc", "value": -0.269}, {"measurement": "glycan array binding signal (z-score)", "setting": "Gal(b1-4)Glc6S", "value": -0.421}, {"measurement": "glycan array binding signal (z-score)", "setting": "Gal(b1-4)GlcNAc", "value": 0.078}, {"measurement": "glycan array binding signal (z-score)", "setting": "[8]", "value": -0.341}, {"measurement": "glycan array binding signal (z-score)", "setting": "Gal(b1-4)GlcNAc(b1-2)Man", "value": 0.302}, {"measurement": "glycan array binding signal (z-score)", "setting": "[9]", "value": -0.69}, {"measurement": "glycan array binding signal (z-score)", "setting": "[10]", "value": -0.105}, {"measurement": "glycan array binding signal (z-score)", "setting": "[11]", "value": 0.382}, {"measurement": "glycan array binding signal (z-score)", "setting": "[12]", "value": 0.15}, {"measurement": "glycan array binding signal (z-score)", "setting": "[13]", "value": -0.8}, {"measurement": "glycan array binding signal (z-score)", "setting": "[14]", "value": -0.573}, {"measurement": "glycan array binding signal (z-score)", "setting": "[15]", "value": -0.132}, {"measurement": "glycan array binding signal (z-score)", "setting": "[16]", "value": -0.499}, {"measurement": "glycan array binding signal (z-score)", "setting": "[17]", "value": -0.278}, {"measurement": "glycan array binding signal (z-score)", "setting": "[18]", "value": 0.751}, {"measurement": "glycan array binding signal (z-score)", "setting": "[19]", "value": -0.396}, {"measurement": "glycan array binding signal (z-score)", "setting": "[20]", "value": -0.494}, {"measurement": "glycan array binding signal (z-score)", "setting": "[21]", "value": 0.029}, {"measurement": "glycan array binding signal (z-score)", "setting": "[22]", "value": -0.87}, {"measurement": "glycan array binding signal (z-score)", "setting": "[23]", "value": -0.194}, {"measurement": "glycan array binding signal (z-score)", "setting": "[24]", "value": 0.284}, {"measurement": "glycan array binding signal (z-score)", "setting": "[25]", "value": 1.86}, {"measurement": "glycan array binding signal (z-score)", "setting": "[26]", "value": 0.532}, {"measurement": "glycan array binding signal (z-score)", "setting": "[27]", "value": 0.353}, {"measurement": "glycan array binding signal (z-score)", "setting": "[28]", "value": -0.055}, {"measurement": "glycan array binding signal (z-score)", "setting": "[29]", "value": 0.59}, {"measurement": "glycan array binding signal (z-score)", "setting": "[30]", "value": 0.002}, {"measurement": "glycan array binding signal (z-score)", "setting": "[31]", "value": -0.225}, {"measurement": "glycan array binding signal (z-score)", "setting": "[32]", "value": 1.25}, {"measurement": "glycan array binding signal (z-score)", "setting": "[33]", "value": -0.245}]}]}
